Screen size: about 310,000 compounds; about 14,000 (4.5%) showed an effect of 50% or more. Effects have a minus sign here. This is one part of the list.
The compounds below were run against human ether-à-go-go-related gene (hERG) potassium channel (human, UniProt Q12809) (assay: primary screen, population patch clamp on CHO cells stably expressing hERG).
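Further: peak tail current of the secondary pulse compared with the same well before compound.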

human ether-à-go-go-related gene (hERG) potassium channel, sequence (Q12809 whole entry, looked up): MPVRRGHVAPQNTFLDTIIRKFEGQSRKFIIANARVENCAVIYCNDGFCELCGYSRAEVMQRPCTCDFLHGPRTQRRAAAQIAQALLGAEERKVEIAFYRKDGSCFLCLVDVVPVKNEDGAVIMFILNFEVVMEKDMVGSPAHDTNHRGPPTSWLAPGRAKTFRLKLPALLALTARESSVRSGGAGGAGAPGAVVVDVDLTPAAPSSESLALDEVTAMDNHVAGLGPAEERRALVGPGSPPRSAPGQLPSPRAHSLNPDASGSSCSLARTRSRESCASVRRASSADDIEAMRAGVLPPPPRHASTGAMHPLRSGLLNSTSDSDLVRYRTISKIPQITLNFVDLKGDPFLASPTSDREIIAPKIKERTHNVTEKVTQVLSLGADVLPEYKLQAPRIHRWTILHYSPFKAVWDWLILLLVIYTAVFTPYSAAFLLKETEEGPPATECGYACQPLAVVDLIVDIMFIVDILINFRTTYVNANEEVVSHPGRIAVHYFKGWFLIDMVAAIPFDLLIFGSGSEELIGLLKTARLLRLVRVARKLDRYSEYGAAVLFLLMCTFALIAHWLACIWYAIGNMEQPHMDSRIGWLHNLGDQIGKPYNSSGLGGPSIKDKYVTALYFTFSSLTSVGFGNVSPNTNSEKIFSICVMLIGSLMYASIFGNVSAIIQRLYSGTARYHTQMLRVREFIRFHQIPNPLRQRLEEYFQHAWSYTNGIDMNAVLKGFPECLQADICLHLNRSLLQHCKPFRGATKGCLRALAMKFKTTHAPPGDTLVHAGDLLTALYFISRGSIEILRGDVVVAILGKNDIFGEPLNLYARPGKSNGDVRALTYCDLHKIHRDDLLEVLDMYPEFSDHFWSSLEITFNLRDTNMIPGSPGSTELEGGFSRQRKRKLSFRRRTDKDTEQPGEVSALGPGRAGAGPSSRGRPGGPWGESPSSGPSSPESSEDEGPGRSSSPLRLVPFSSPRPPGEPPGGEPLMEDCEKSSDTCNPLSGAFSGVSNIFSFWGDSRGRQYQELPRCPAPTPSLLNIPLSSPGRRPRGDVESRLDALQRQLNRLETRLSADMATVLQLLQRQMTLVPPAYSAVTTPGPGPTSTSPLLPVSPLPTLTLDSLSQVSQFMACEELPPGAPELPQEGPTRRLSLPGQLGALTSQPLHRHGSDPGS

SMILES | hERG current change (%, negative = inhibition) at 10uM [%]
CN1CCN(c2ccc(NC(=O)c3ccc(Br)o3)cc2)CC1 | -16.2
N=C1C(c2ccccc2)=C(O)CN1c1cccc(S(=O)(=O)NCc2ccco2)c1 | -4.61
COc1ccc(OC(=O)c2ccc(Cl)cc2)c(C(C)=O)c1 | 12.3
CCOC(=O)c1c(CNCCN(CC)CC)n(C)c2cc(Br)c(OC)cc12.Cl | -68.5
CC(=O)Nc1ccc(S(=O)(=O)NCCc2ccc(F)cc2)cc1 | -10.7
COc1ccccc1CNCC(=O)NCc1ccc(C)cc1.O=C(O)C(=O)O | -39.7
Cc1cccc(-c2noc(CCCC(=O)NCC3CCCO3)n2)c1 (stereo not drawn) | 12.1
Fc1cccc(CNc2ncnc3ccc(-c4ccc5c(c4)OCO5)cc23)c1 | -31
CC(=O)c1cccc(NC(=S)N2CCN(c3ccccn3)CC2)c1 | -8.57
COc1cccc(C2C(C#N)=C(N)OC3=C2C(=O)CCC3)c1OC(=O)c1ccco1 (stereo not drawn) | 14
O=C1CCCC(=O)C1=Cc1c[nH]c2ccccc12 | 11.1
COc1ccc(/C=N/NC(=S)Nc2ccccc2)cc1COc1ccc(Br)cc1 | -1.6
Cc1c(C(=O)N2CCOCC2)c(S(=O)(=O)Nc2ccccc2)c(C)n1C | 8.84
COc1ccc(/C=C2\C(=O)ON=C2c2ccccc2)cc1 | 23.2
COc1ccc(NC(=O)CN(C)S(=O)(=O)c2ccc3c(c2)CC(C)N3C(C)=O)cc1OC (stereo not drawn) | 10.3
COc1ccc(C(=O)N(C(C)C)C(C)C)c(OC)c1 | 7.5
CC(C)(C)C1C=C(Sc2ccccc2)C(=O)O1 (stereo not drawn) | -16
Cc1ccc2c(c1)sc[n+]2Cc1ccccc1.[Br-] | 15
O=C(c1ccc(S(=O)(=O)Nc2ccccc2Cl)cc1)N1CCOCC1 | 5.07
Cc1cc(NC(=O)COc2cccc(C)c2C)no1 | 0.696
COc1ccc(N2CCN(Cc3cc(=O)c(OCC(=O)Nc4ccccc4)co3)CC2)cc1 | 9.41
N#C/C(=N\Nc1ccc(S(=O)(=O)N2CCc3ccccc32)cc1)C(N)=S | 12.3

SMILES | hERG current change (%, negative = inhibition) at 10uM [%]
O=c1c(OC2OC(CO)C(O)C(O)C2O)c(-c2ccc(O)c(O)c2)oc2cc(O)cc(O)c12 (stereo not drawn) | 16.7
COc1cc(CNC2CCC(C)C2)cc(OC)c1 (stereo not drawn) | 7.93
COc1ccc(C(=O)NNC2CC(=O)N(Cc3ccc(Cl)cc3)C2=O)cc1OC (stereo not drawn) | -3.13
COc1ccc2nc(NC(=O)CN3CCN(C)CC3)sc2c1.Cl | -5.07
CC(C)C(=O)Nc1ccc(N2CCN(C(=O)c3cccs3)CC2)cc1 | -6.99
Cc1ccc(CNC(=O)C2CC(=O)N(C3CCCC3)C2)cc1 (stereo not drawn) | 10.8
Cc1c(O)c(=O)c2ccccc2n1C | 17.9
COC(=O)C1=C(Nc2ccc(C)cc2)C=C(C)C(C(=O)OC)C1c1ccc(F)cc1 (stereo not drawn) | 15.2
Cc1ccc(-c2nnc(-c3ccc(NC(=O)c4cccs4)cc3)o2)cc1 | 7.86
CC(C)C[C@@H](CO)N1CCN(C)CCC1=O | -4.26
CN(C)CCCNS(=O)(=O)c1cc(Cl)ccc1Cl | 5.61
COc1ccc(C(C)NS(=O)(=O)Cc2ccccc2)cc1 (stereo not drawn) | 9.56
Cc1ccc2cc3cc(C(=O)NCCC(C)C)oc3nc2c1 | 8.43
CCOc1ccc(NC(=O)NNC(=O)c2ccc3ccccc3c2O)cc1 | 10.9
C=CC[n+]1ccc2ccccc2c1C.[Cl-] | 9.28
COc1ccc(N2CCN(C(CNC(=O)C(C)(C)C)c3cccnc3)CC2)cc1 (stereo not drawn) | -36.7
O=C(CCCN1C(=O)c2ccccc2C1=O)Nc1cccnc1 | -2.46
CC(C)(C)NC(=O)CN(Cc1ccco1)C(=O)CCC(=O)Nc1nccs1 | 4.5
CN(C)c1ccc(NC(=S)N2CCN(c3ncc(C(F)(F)F)cc3Cl)CC2)cc1 | 14.2
Cn1c(=O)c(=O)n(C)c2cc(S(=O)(=O)NCCN3CCN(c4ccccc4F)CC3)ccc21 | 15.1
COc1cc(CCC(=O)Nc2ccc(Br)c(C(F)(F)F)c2)cc(OC)c1OC | 10.9
CCN(CC(=O)NCc1cccs1)C(=O)c1ccc(S(=O)(=O)Nc2cccc(C)c2C)cc1 | -34

SMILES | hERG current change (%, negative = inhibition) at 10uM [%]
COc1ccccc1C(=O)NC(=O)Nc1nc(-c2ccccc2)cc(C(F)(F)F)n1 | 14
Cc1ccc(NC(=O)c2cc(C)n(-c3cccc(C)c3)c2C)cc1 | 5.53
COc1ccc(S(=O)(=O)n2cnc3ccccc32)c(C)c1 | -5.7
O=C(NC(=S)Nc1ccc2oc(=O)ccc2c1)c1ccc(-c2cccc(Cl)c2Cl)o1 | 2.02
CCOC(=O)c1ccc(N(C(=O)CNC(=O)c2ccco2)C(C(=O)NCC2CCCO2)c2ccc(OC)c(OC)c2)cc1 (stereo not drawn) | 15.3
O=C(CSc1nnc(Nc2ccccc2F)s1)NC1CC1 | 10.1
COc1c2ccccc2nc2ccccc12 | 13.3
COc1cc(OC)cc(-c2nnc(NC(=O)CCS(=O)(=O)c3ccccc3)o2)c1 | -26.2
Cn1nc(C(C)(C)C)cc1C(=O)NCc1cc(F)cc2c1OCOC2 | 1.16
O=C(Nc1ccccc1-c1ccccc1)C1CCCC1 | -11.6
CN(c1ccccc1C(=O)O)S(=O)(=O)c1ccc2c3c(cccc13)C(=O)N2 | 2.27
Cc1ccc(C)c(N2CCN(CCN3CCCCC3)CC2)c1.Cl | -3.6
O=C(c1cccs1)N1CCN(C23CC4CC(CC(C4)C2)C3)CC1 | -35.8
CCCC(C)C(=O)NCc1ccncc1 (stereo not drawn) | 8.84
COc1ccc2sc(N3C(=O)CC(Cc4cccc(C)c4)C3=O)nc2c1 (stereo not drawn) | -22.9
CC(C(=O)Nc1cc([N+](=O)[O-])ccc1Cl)N1CCN(c2ccccc2O)CC1 (stereo not drawn) | -1.79
CC(=O)c1cnc2nc(SCc3ccc(Cl)cc3)nn2c1C | -12.5
CCOC(=O)C1CCCN(C(=O)CNC(=O)c2nn(-c3ccc(OC)c(Cl)c3)c(=O)c3ccccc23)C1 (stereo not drawn) | -5.66
CCOC(=O)c1c(C)[nH]c(C)c1S(=O)(=O)N1CCN(c2cccc(C)c2)C(C)C1 (stereo not drawn) | -2.7
CCCCN(C(=O)Cn1nnc2ccccc21)C(C(=O)NCCOC)c1ccc(OC)cc1 (stereo not drawn) | -4.51
CC(=O)n1cc([C@H]2C=C(C(=O)N3CCOCC3)O[C@@H](OCc3ccc(CO)cc3)C2)c2ccccc21 | -55.2
NC(=O)c1ccc2c(c1)S(=O)(=O)c1ccccc1C2=O | 28.9

SMILES | hERG current change (%, negative = inhibition) at 10uM [%]
O=C(Nc1cccc(OC(=O)N2CCOCC2)c1)N1CCOCC1 | 22.6
Fc1ccc(CSc2nncn2NC/C=C/c2ccccc2)cc1 | -43.7
CC1=CC(C)(C)N(S(=O)(=O)c2ccc(F)cc2)c2ccc(C)cc21 | -6.32
O=C(Nc1ccncc1)C1c2ccccc2Oc2ccccc21 | 6.78
S=C1Nc2cc(Cl)ccc2Sc2ccccc21 | 23
O=C(NNC(=O)c1ccc(Br)s1)c1ccc(F)c(S(=O)(=O)N2CCOCC2)c1 | -21.2
FCCCOc1ccc(CN2CCN(c3ccccc3F)CC2)cc1 | -42.2
Cc1ccc(NC(=O)C(C)Oc2ccccc2)cc1S(=O)(=O)N1CCCCCC1 (stereo not drawn) | -7.7
CCOC(=O)CSc1ccc(-c2nc3cc(C)c(C)cc3[nH]2)cn1 | 19.1
CC(=O)c1nnn(-c2nc(N)nc(N(c3ccccc3)c3ccccc3)n2)c1C | -1.85
COc1ccccc1CNS(=O)(=O)c1cc(-c2cc(C)no2)ccc1C(C)C | 5.07
O=C1C(=O)N(CCCN2CCOCC2)C(c2ccc(Cl)cc2)/C1=C(\O)c1ccc2c(c1)OCCO2 (stereo not drawn) | 15.9
Cn1nc(C(=O)OCC(=O)Nc2ccccc2[N+](=O)[O-])c2ccccc2c1=O | -0.623
Cc1cc(NC(=O)CCCn2cc([N+](=O)[O-])cn2)n(Cc2ccc(F)cc2)n1 | -40.1
O=C(Nc1ccccc1)n1cc(-c2ccccn2)c(N2CCOCC2)n1 | -4.57
COc1cccc(C(=O)NC2CC(C)(C)NC(C)(C)C2)c1OC | -3.54
C#CCn1c(C)cc(C)c(S(=O)(=O)c2ccccc2)c1=O | 10.1
O=C(CN(Cc1ccco1)C(=O)c1ccc(F)cc1F)Nc1ccccc1C(F)(F)F | -21.5
CC1CCN(C(=O)C2CCN(S(=O)(=O)c3cccc4nsnc34)CC2)CC1 | -24.6
Cc1ccc(S(=O)(=O)NCC(=O)NCCc2c[nH]c3ccccc23)cc1C | 3.3
COc1cccc(C(=O)N2CCC(N3CC(C)OC(C)C3)CC2)c1.O=C(O)C(=O)O (stereo not drawn) | 14.4

Reference: publication PMC4336329 (PLoS ONE, 2015)
